# Reference: the supplement of paper PMC7826260
# Some of the results follow. One pool of 16,384 single-stranded DNAs met each Rep nickase domain in vitro (1 h at 37 °C, 3 µM enzyme); the outer parts of the 90-letter strands are left off. The score is log2 (uncut reads / reads without enzyme); the lower, the more was cut; hits are not called. Reads are scaled to the total; uncut strands gain when others are lost, and binding without cutting may add a little.
# System: T1, Rep nickase domain of tomato golden mosaic virus
# T1 sequence (residues 1-124, tag not shown): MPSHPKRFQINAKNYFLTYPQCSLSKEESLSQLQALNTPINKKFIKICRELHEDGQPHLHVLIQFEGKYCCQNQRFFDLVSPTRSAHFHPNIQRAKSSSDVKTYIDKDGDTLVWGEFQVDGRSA
# Assay: uncleaved DNA left, log2 of reads against the no-enzyme library (log2 ratio); higher = less cleavage (more negative = more Rep cleavage of the k-mer); sequences stand for … in CTCGTCCG…ACCGGAGA
# Procedure: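 A pool of 90-nt single-stranded DNAs with seven random bases just before the constant AC of the nick site (name = the seven bases) was cut by 3 µM recombinant His6-SUMO-tagged Rep nickase domain (300 nM DNA, 50 mM HEPES pH 8.0, 50 mM NaCl, 1 mM MnCl2, 1 h, 37 °C, three replicates). Uncut DNA was amplified and sequenced.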
row,Sequence,uncleaved DNA left (log2)
1,ACAACTA,-0.0259
2,TAAGAAA,0.00513
3,GTTATCA,0.131
4,TGAGATA,0.121
5,GTGCAAC,0.00333
6,TCAATTT,-0.0883
7,CTCAGGC,-0.0618
8,TAGTGAG,-0.0633
9,TGCCGGG,0.0707
10,TCCGCCG,-0.0167
11,CATCCTG,-0.0238
12,AAATGGG,0.0449
13,GTAGCCA,0.07
14,AGTTCTT,0.0132
15,CTGCCCA,-0.0424
16,ATATAGG,0.147
17,CCTACCA,-0.144
18,TAAATTA,-0.337
19,AGGTTGA,0.0652
20,TTAAAAA,0.0541

row,Sequence,uncleaved DNA left (log2)
1,TGCAACT,0.0979
2,GTGGCTG,0.0922
3,CGGACAG,0.112
4,CATTGTG,-0.071
5,GAAATGG,0.0492
6,GCTGAGT,0.174
7,ACTCGGC,0.0305
8,GAGTATA,-0.0109
9,GACAGCG,0.00337
10,TCTTTGC,-0.142
11,ACAAACT,-0.0631
12,ACTCTAC,-0.0742
13,CTGGTCT,0.0205
14,ACGGATG,0.13
15,GAGACAC,0.00303
16,CTCAGTA,-0.0362
17,CGGTATT,-0.337
18,GGAAGCC,-0.0681
19,ATAATAT,0.0796
20,ATACGTT,-0.0472
